Data on 89 molecules can be found in PubChem BioAssay AID463173 (ICCB-Longwood Screening Facility, Harvard Medical School, 2010).

Each structure is given as a SMILES string. Hit rate of the full screen: of about 52,000 compounds, about 1,700 (3.3%) were called active. Cut-off read from the data, not from the text of the source: active = survival mostly below about 52% (no sharp cut-off); inactive = mostly above about 56%. The list shows a part of the results.

The test system of this test is Wild type. Description: growth inhibition of S. aureus wild type versus tarO mutant, primary screen, teichoic acid synthesis inhibitors, RN4220, OD600 (AID 463173). The following applies: S. aureus RN4220 wild type/DeltatarO growth, OD600, 18 h, active compounds read low, screened at 18.75 µg/mL (by protocol).
In the case of `CCS(=O)(=O)N1CCC2(CC1)OC(=O)C(C)=C2C(=O)NCc1ccccc1C`, the survival was inactive: 88%.
Next, `N#Cc1ccc2c(c1)nc1c3cccc4cccc(c(=O)n21)c43`: inactive: 119%; `Cc1cc(-c2ccc(S(=O)(=O)NCc3ccccc3Cl)s2)on1`: inactive: 121%.
Take `CC(C)OC(=O)/C(C#N)=C\c1cccn1C`: the survival was inactive: 111%.
`N#CCNC(=O)c1cccc(I)c1`: the survival is inactive: 116%.
In the case of `COc1cccc(Cn2c(=O)cc(C)c3c(C)nn(-c4ccc(C)cc4)c32)c1`, the survival was inactive: 80%.
On to `CCCCNCc1cccn1-c1sc2c(c1C#N)CCCC2`, for which the survival is inactive: 109%.
Turning to `Cc1cccc(N2C(=O)C(CC(=O)Nc3ccc(F)cc3)N(C3CCCC3)C2=O)c1` (centres undefined), the survival was inactive: 134%.
Regarding `Cc1ccc(S(=O)(=O)n2nc(-c3ccccc3)nc2NCc2ccccc2Cl)cc1`, the survival was inactive: 82%.
Next, `COc1ccc(CNC(=O)C(OC(C)=O)c2ccccn2)cc1` (centres undefined): inactive: 96%.
As to `Cc1cc(C)c(C#N)c(NC2CCCCC2)n1`, the survival was inactive: 92%.
As to `Cc1oc2ccc(O)c(CN3CCN(C)CC3)c2c1C(=O)Nc1ccc(C(C)C)cc1`, the survival is inactive: 112%.
Regarding `Cc1cc2c(cc1C)CN(c1cccc(C(=O)N/N=C/c3ccco3)c1)C2`, the survival was inactive: 119%.
Regarding `Cc1ccc(-c2cc(C(=O)N3CCN(S(=O)(=O)c4ccc(Br)s4)CC3)[nH]n2)cc1C`, the survival was inactive: 84%.
Next, `Cc1ccc(C)c(NC(=O)Cn2c(=O)n(Cc3nc(C)no3)c(=O)c3cc4c(cc32)OCO4)c1`: inactive: 72%.
With `COc1ccc(CNc2nc(-c3ccco3)nn2S(=O)(=O)c2ccc3ccccc3c2)cc1OC`, the survival is inactive: 80%.
The same measure for `Cc1cc(C)n2nc(NCc3ccccc3Cl)nc2n1`: inactive: 87%.
Turning to `CCc1ccc(NC(=O)Cn2c(=O)n(Cc3ccc4c(c3)OCO4)c(=O)c3oc4ccccc4c32)cc1`, the survival is inactive: 85%.
Regarding `CCc1c(C)nc2cc(-c3cc(OC)cc(OC)c3)nn2c1NCCO`, the survival was inactive: 111%.
Next, `Cc1cc2oc(C(=O)NCCc3ccc(S(N)(=O)=O)cc3)cc(=O)c2cc1C`: inactive: 90%; `CC(=O)Nc1ccc(NC(=O)CSc2cn(CC(=O)N(C(C)C)C(C)C)c3ccccc23)cc1`: inactive: 97%.
Take `Cc1ccc(-c2noc(CN(C3CCCCC3)S(=O)(=O)c3ccc(F)cc3)n2)cc1`: the survival is inactive: 84%.
For `COC(=O)c1cc2occc2n1Cc1nc(-c2ccccc2C)oc1C`, the survival was inactive: 76%.
For the molecule `COc1cc(C(=O)NCc2nnnn2-c2ccc(C)c(C)c2)cc(OC)c1OC`, the survival was inactive: 73%.
`CCC(=O)N1CCc2cc(S(=O)(=O)NC(Cc3ccccc3)C(=O)NCc3ccc(C)cc3)ccc21` (centres undefined): the survival was inactive: 104%.
In the case of `COc1ccc(OCCn2cc(C(=O)c3ccco3)c3ccccc32)cc1`, the survival is inactive: 62%.
Consider `CCOc1ccccc1CN1C(=O)c2ccccc2C1C(=O)NC1CCCCCC1` (centres undefined), for which the survival was inactive: 87%.
In the case of `Cc1ccccc1COC(=O)c1ccc(-c2nnn(Cc3ccccc3F)n2)cc1`, the survival is inactive: 72%.
With `CCN1CCN(C(=O)c2ccc3c(c2)N(Cc2c(F)cccc2Cl)C(=O)c2ccccc2S3)CC1`, the survival was inactive: 79%.
Next, `COc1ccc(-c2nc(C)c(CCNC(=O)c3ccco3)s2)cc1`: inactive: 82%.
Take `CC(C)c1ccc(NC(=O)CSC2=Nc3ccccc3C3=NC(CCC(=O)NCc4ccc(F)cc4)C(=O)N23)cc1` (centres undefined): the survival is inactive: 83%.
Take `CCC(C)Sc1nc2c([nH]c3ccccc32)c(=O)n1C` (centres undefined): the survival is inactive: 100%.
As for `CC(=O)N1c2ccc(S(=O)(=O)N3CCN(c4cc(Cl)ccc4C)CC3)cc2CC1C` (centres undefined), the survival was inactive: 112%.
For `O=c1c(-c2cc(-c3ccc(F)cc3)nc3c2COc2ccc(Cl)cc2-3)coc2ccc(F)cc12`, the survival was inactive: 70%.
Take `O=C(CCCCCn1c(=O)[nH]c2ccccc2c1=O)N1CCN(c2ccc(Cl)cc2)CC1`: the survival was inactive: 85%.
On to `COc1cc2c(cc1OC)C(COc1cc(C)cc(C)c1)N(C(=O)c1ccc(S(=O)(=O)N3CCCC3)cc1)CC2` (centres undefined), for which the survival is inactive: 45%.
Next, `O=C1c2ccccc2N(Cc2ccc(Cl)cc2)C2=NCCN12`: inactive: 99%.
The same measure for `O=C(CSc1nc2c([nH]c3ccccc32)c(=O)n1-c1cccc(Cl)c1)NCc1ccccc1`: inactive: 78%; for `CC(C)C1Oc2ccccc2N(CC(=O)N(Cc2ccccn2)C2CC2)C1=O` (centres undefined): inactive: 111%.
Consider `COC(=O)c1ccc(CNC(=O)c2nc(Cn3nc(C)c(Br)c3C)no2)cc1`, for which the survival is inactive: 78%.
Next, `CCc1nc2ccc(C(=O)N3CCN(c4cccc(OC)c4)CC3)cc2nc1CC`: inactive: 92%.
With `CCc1nnc(NC(=O)CSc2nc3c([nH]c4ccccc43)c(=O)n2-c2ccc(C)cc2)s1`, the survival was inactive: 124%.
For the molecule `CCOC(=O)C1CCCN(C(=O)Cn2ncc3c4ccccc4n(Cc4ccc(F)cc4)c3c2=O)C1` (centres undefined), the survival was inactive: 138%.
`O=C(COc1ccccc1)Nc1sc2c(c1C(=O)Nc1ccccc1)CCCCC2`: the survival is inactive: 101%.
Regarding `Cc1ccc(C)c(-c2ccc(=O)n(Cc3ccc(F)cc3Cl)n2)c1`, the survival is inactive: 59%.
As for `CCN(CC)c1ccc(C(=O)Nc2ccc3nc(N(CC)CC)cc(C)c3c2)cc1`, the survival was inactive: 71%.
In the case of `CCOC(=O)CNC(=O)CC(c1cc(OC)c(OC)c(OC)c1)N1Cc2ccccc2C1=O` (centres undefined), the survival was inactive: 60%.
Next, `CCOC(=O)c1ccc(NC(=O)CCn2c(=O)oc3ccccc32)cc1`: inactive: 133%.
In the case of `CN(Cc1ccccc1)C(=O)Cn1c(=O)c2cccn2c2ccc(F)cc21`, the survival was inactive: 81%.
On to `Cc1ccc2[nH]c(CSc3nnc(NC(=O)COc4ccccc4Cl)s3)cc(=O)c2c1`, for which the survival was inactive: 84%.
`Cc1ccc(CNC(=O)c2sc3ncnc(N(C)C4CCCCC4)c3c2C)cc1`: the survival was inactive: 81%.
As for `CC(C)N(C(=O)CNCc1cccs1)C(C)C`, the survival is inactive: 111%.
The same measure for `CCc1ccc(NC(=O)C2CCCN(S(=O)(=O)c3cccc4cccnc34)C2)cc1` (centres undefined): inactive: 85%; for `O=S(=O)(NCC(c1ccco1)N1CCOCC1)c1ccc(Cl)cc1` (centres undefined): inactive: 93%.
On to `COc1ccc(Nc2c(-c3ccco3)nc3cccc(C)n23)cc1`, for which the survival is inactive: 97%.
On to `O=C(Nc1ccccc1C(F)(F)F)Nc1c[nH]c(=O)[nH]c1=O`, for which the survival is inactive: 68%.
The same measure for `COc1cc(OC)c(OC)cc1CN1CCc2nc(N3CCN(c4ccccc4F)CC3)ncc2C1`: inactive: 64%; for `Cc1ccc2c(C)c(C(=O)N3CCC(c4nc5ccccc5s4)CC3)oc2c1C`: inactive: 88%.
The same measure for `COc1ccc(C2C=C(c3ccccc3)Nc3nc(NS(=O)(=O)c4ccc(C)cc4)nn32)cc1` (centres undefined): inactive: 66%; for `Cc1ccc(OCC(=O)N(Cc2ccc(Cl)cc2)CC2CCCO2)cc1C` (centres undefined): inactive: 71%; for `CNC(=S)N1CCN(c2cccc(C)c2C)CC1`: inactive: 102%.
In the case of `Cc1c(C(=O)OC2CCCCC2)[nH]c2c1C(=O)CC(c1ccccc1)C2` (centres undefined), the survival was inactive: 88%.
Regarding `CCN(CC)S(=O)(=O)c1ccc2c(c1)N(CC(=O)NCc1ccc(F)cc1)C(=O)CO2`, the survival was inactive: 73%.
`Cc1cc(N2CCN(c3cccc(C(F)(F)F)c3)CC2)n2nc(-c3ccccc3C)nc2n1`: the survival was active: 11%.
Consider `CCCOc1ccc(C2C(=O)N(C3CCCCCC3)CC(=O)N2Cc2ccc(OC)cc2)cc1OC` (centres undefined), for which the survival is inactive: 64%.
Regarding `CC(C)=CCCC1=CCC2C(=O)NNC(=O)C2C1` (centres undefined), the survival was inactive: 107%.
The same measure for `Cc1ccc2oc(=O)c3cnn(CC(=O)N4CCN(c5cccc(C(F)(F)F)c5)CC4)c3c2c1`: inactive: 85%.
The same measure for `CCC(C)NC(=O)CSc1nc2c(sc3ccccc32)c(=O)n1CCc1ccccc1` (centres undefined): inactive: 87%; for `O=S(=O)(c1cccc(C(F)(F)F)c1)N1CCC(Oc2ccc(-n3cnnn3)cc2)CC1`: inactive: 81%.
As for `COc1cccc(NC(=O)Cn2c(=O)n(Cc3ccccc3)c(=O)c3c2c2cc(C)ccc2n3C)c1`, the survival was inactive: 72%.
Take `COc1ccc(NC(=O)C2=C(C)Nc3c(C(=O)Nc4ccc(C)cc4)cnn3C2c2cc(OC)ccc2OC)cc1` (centres undefined): the survival was inactive: 76%.
As for `Cc1cc(C)c2oc(-c3cc(NC(=O)Cc4ccccc4)ccc3Cl)nc2c1`, the survival was inactive: 45%.
For the molecule `N#Cc1c(N)n[nH]c1-c1cc2c([nH]1)CCCC2`, the survival is inactive: 104%.
`CN(C)c1ccc(C2CC(c3c(O)n(C4CCCCC4)c(=O)[nH]c3=O)=Nc3ccccc3S2)cc1` (centres undefined): the survival was inactive: 85%.
Next, `CCCN1CCc2nc(SCC(=O)Nc3ccc(C)c(Cl)c3)[nH]c(=O)c2C1`: inactive: 99%; `c1ccc(CSc2nnc(C3CCNCC3)o2)cc1`: inactive: 89%; `CCOc1ccc(C(=O)N2CCC(c3nc(-c4ccc(S(=O)(=O)N5CCCC5)cc4)no3)CC2)cc1`: inactive: 94%.
Take `Cc1cc2c(cc(C(=O)OC(C(=O)NCC3CCCO3)C(C)C)n2C)o1` (centres undefined): the survival is inactive: 120%.
Next, `C1=CCC(CN2CCN(Cc3ccccc3)CC2)CC1` (centres undefined): inactive: 111%; `CC(=O)Nc1nc2ccccc2n1Cc1ccc(C)cc1`: inactive: 96%.
In the case of `COC(=O)c1ccc(NC(=O)CCn2cccn2)cc1`, the survival was inactive: 88%.
Next, `Cc1ccc(C(C)C)c(OCC(=O)Nc2cccc(-c3nc4ncccc4o3)c2)c1`: active: 2%.
As to `O=c1[nH]c2ccc(NCc3ccc(-c4ccccc4F)o3)cc2[nH]1`, the survival is inactive: 88%.
The same measure for `CCOc1ccc(-c2cc3c(=O)n(Cc4nc(-c5ccc(OC)cc5OC)oc4C)ccn3n2)cc1Cl`: inactive: 158%.
For `COc1cccc(Oc2nc3c(c(=O)n(Cc4ccccc4Cl)c(=O)n3C)n2C)c1`, the survival is inactive: 77%.
As to `O=C(NC1CCCCC1)c1cccs1`, the survival is inactive: 116%.
With `CCOc1ccc(NC(=O)N(Cc2ccc(CC)cc2)Cc2cn[nH]c2-c2ccc(OC)cc2)cc1`, the survival is inactive: 73%.
As for `COc1ccc(CNC(=O)c2ccc3c(c2)N(Cc2ccccc2)C(=O)c2ccccc2S3=O)cc1` (centres undefined), the survival was inactive: 88%.
The same measure for `CCc1ccccc1OCCSc1nc(-c2cccs2)nc2cc(=O)[nH]n12`: inactive: 110%.
